From patent publication US5876948A (priority 1991, dated 1999)
Not every detail of the peptide structures is certain; ends, links or a residue may be inferred. Peptide text beside a SMILES is read from it.

Key:
Format in all cases: cell-based, rat
[1] = tested on: hippocampal neurons
[2] = tested on: hippocampal neurons; remark: listed apart in the source
[3] = tested on: primary hippocampal neurons; experiment: Block of β1-40 neuronal toxicity by Substance P and analogs (therapeutic efficacy)
[4] = tested on: hippocampal neurons; remark: listed apart in the source
[5] = tested on: hippocampal neurons; remark: listed apart in the source

Structure (SMILES) | reversal of early trophic response to β1-40 [1] | reversal of late toxic response to β1-40 [2] | Therapeutic Efficacy (%): ability to block neuronal toxicity of β1-40 [3] | % Toxic Response [4] | neurotoxic activity / late neuronal survival (in words) [4] | % Trophic Response [5] | neurotrophic activity / early neuronal survival (in words) [5]
CSCC[C@H](NC(=O)[C@H](CC(C)C)NC(=O)CNC(=O)[C@@H](NC(=O)[C@H](Cc1ccccc1)NC(=O)[C@H](CO)NC(=O)[C@H](CC(=O)O)NC(=O)[C@@H](NC(=O)[C@H](CCCCN)NC(=O)[C@@H](N)Cc1c[nH]cn1)[C@@H](C)O)C(C)C)C(N)=O [Neurokinin A] | did not show significant effects | did not show significant effects |  |  |  |  | 
CSCC[C@H](NC(=O)[C@H](CC(C)C)NC(=O)CNC(=O)[C@@H](NC(=O)[C@H](Cc1ccccc1)NC(=O)[C@H](Cc1ccccc1)NC(=O)[C@H](CC(=O)O)NC(=O)[C@H](Cc1c[nH]cn1)NC(=O)[C@H](CCSC)NC(=O)[C@@H](N)CC(=O)O)C(C)C)C(N)=O [Neurokinin B] | partially reversed | partially reversed |  |  |  |  | 
N=C(N)NCCC[C@H](N)C(=O)N1CCC[C@H]1C(=O)N[C@@H](CCCCN)C(=O)N1CCC[C@H]1C(=O)N[C@@H](CCC(N)=O)C(=O)N[C@@H](CCC(N)=O)C(=O)N[C@@H](Cc1ccccc1)C(=O)O [Sub P (1-7), RPKPQQF] (H-RPKPQQF-OH) |  |  | 82% |  |  |  | 
CSCC[C@H](NC(=O)[C@H](CC(C)C)NC(=O)CNC(=O)[C@H](Cc1ccccc1)NC(=O)[C@H](Cc1ccccc1)NC(=O)[C@@H](N)CCC(N)=O)C(N)=O [Sub P (6-11), QFFGLM] (H-QFFGLM-NH2) |  |  | 65 |  |  |  | 
CSCC[C@H](NC(=O)[C@H](CC(C)C)NC(=O)CNC(=O)[C@H](Cc1ccccc1)NC(=O)[C@@H](N)Cc1ccccc1)C(N)=O [Sub P (7-11), FFGLM] (H-FFGLM-NH2) |  |  | 41% |  |  |  | 
CSCC[C@H](NC(=O)[C@H](CC(C)C)NC(=O)CNC(=O)[C@H](Cc1ccccc1)NC(=O)[C@H](Cc1ccccc1)NC(=O)[C@H](CCC(N)=O)NC(=O)[C@H](CCC(N)=O)NC(=O)[C@@H]1CCCN1C(=O)[C@H](CCCCN)NC(=O)[C@@H]1CCCN1C(=O)[C@@H](N)CCCNC(=N)N)C(N)=O [Substance P] | almost completely reversed | almost completely reversed |  | 0 ± 7% | no effect on early or late neuronal survival | 16 ± 8% | no effect on early or late neuronal survival
CSCC[C@H](NC(=O)[C@H](CC(C)C)NC(=O)[C@@H](Cc1c[nH]c2ccccc12)NC(=O)[C@H](Cc1ccccc1)NC(=O)[C@@H](Cc1c[nH]c2ccccc12)NC(=O)[C@H](CCC(N)=O)NC(=O)[C@H](CCC(N)=O)NC(=O)[C@@H]1CCCN1C(=O)[C@H](CCCCN)NC(=O)[C@H]1CCCN1C(=O)[C@@H](N)CCCNC(=N)N)C(N)=O [[D-Pro^2, D-Trp^7.9]] substance P, [D-Pro^2, D-Trp^7,9]-substance P] (HELM PEPTIDE1{R.[dP].K.P.Q.Q.[dW].F.[dW].L.M.[am]}$$$$V2.0) |  |  |  | 117 ± 13% | significant early neurotrophic and late neurotoxic effects | 125 ± 11% | significant early neurotrophic and late neurotoxic effects
CCCC[C@H](NC(=O)[C@H](CC(C)C)NC(=O)CNC(=O)[C@H](Cc1ccccc1)NC(=O)[C@H](Cc1ccccc1)NC(=O)[C@H](CCC(N)=O)NC(=O)[C@H](CCC(N)=O)NC(=O)[C@@H]1CCCN1C(=O)[C@H](CCCCN)NC(=O)[C@@H]1CCCN1C(=O)[C@@H](N)CCCNC(=N)N)C(N)=O [[Nle^11]-Sub P] |  |  | 77% |  |  |  | 
CC(C)[C@H](NC(=O)[C@H](CCC(=O)O)NC(=O)[C@H](Cc1ccc(O)cc1)NC(=O)CNC(=O)[C@H](CO)NC(=O)[C@H](CC(=O)O)NC(=O)[C@H](Cc1c[nH]cn1)NC(=O)[C@H](CCCNC(=N)N)NC(=O)[C@H](Cc1ccccc1)NC(=O)[C@H](CCC(=O)O)NC(=O)[C@H](C)NC(=O)[C@@H](N)CC(=O)O)C(=O)N[C@@H](Cc1c[nH]cn1)C(=O)N[C@@H](Cc1c[nH]cn1)C(=O)N[C@@H](CCC(N)=O)C(=O)N[C@@H](CCCCN)C(=O)O [β1-16] |  |  |  | 0 ± 10% | no trophic or toxic activity | 0 ± 8% | no trophic or toxic activity
CC(C)C[C@H](N)C(=O)N[C@H](C(=O)N[C@@H](Cc1ccccc1)C(=O)N[C@@H](Cc1ccccc1)C(=O)N[C@@H](C)C(=O)N[C@@H](CCC(=O)O)C(=O)N[C@@H](CC(=O)O)C(=O)N[C@H](C(=O)NCC(=O)N[C@@H](CO)C(=O)N[C@@H](CC(N)=O)C(=O)N[C@@H](CCCCN)C(=O)O)C(C)C)C(C)C [β17-28] (H-LVFFAEDVGSNK-OH) |  |  |  | 0 ± 8% | no trophic or toxic activity | 0 ± 4% | no trophic or toxic activity
CC[C@H](C)[C@H](NC(=O)[C@H](C)NC(=O)CN)C(=O)N[C@H](C(=O)NCC(=O)N[C@@H](CC(C)C)C(=O)N[C@@H](CCSC)C(=O)O)[C@@H](C)CC [β29-35] (H-GAIIGLM-OH) |  |  |  |  | sufficient portion of the functional domain of β-amyloid required for the toxic effects |  | 
